# Results: the supplement of paper PMC12355420
# Counter-ions that a name gives are not always drawn. The list shows a part of the results. Cut-off read from the data, not from the text of the source: active = 0.5 or less and inactive = the rest. Most values come without repeats; read them as rough.
# Key:
# Conditions in all cases: 50 µM; 24 h
# [1] = system: HeLa VPS33A reporter cells; assay: relative cell viability (CellMask signal) vs DMSO (fraction of DMSO); higher = less cytotoxic;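 note: primary screen of an FDA-approved drug library in HeLa reporter cells in 96-well format, CellMask signal normalized to DMSO-treated wells set as 1, under 0.5 deemed highly cytotoxic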
# [2] = system: HeLa VPS33A R498W KI + HA-SDC1-FLAG; assay: relative GAG core protein HA-SDC1 amount per cell number vs DMSO (fraction of DMSO); higher = more SDC1 (GAG core protein);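 note: HA-SDC1 level read out by In-Cell Western staining with an anti-HA antibody against the N-terminal tag, screening FDA-approved library drugs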
# [3] = system: HeLa VPS33A KO + NLuc-VPS33A R498W; assay: relative mutant VPS33A R498W amount (NanoLuc luminescence) vs DMSO (fraction of DMSO); HeLa model of a glycosaminoglycan (GAG) storage disease; KI is knock-in and KO knock-out; SDC1 is syndecan 1; higher = higher mutant VPS33A level;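 note: screen of an FDA-approved drug library, NanoLuc luminescence read after lysing the treated cells, taken as a measure of mutant VPS33A protein stability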
SMILES,relative cell viability [1],relative GAG core protein HA-SDC1 amount per cell number [2],relative mutant VPS33A R498W amount [3]
O=C1NCC2(CCN(CCc3ccccc3)CC2)O1 [Fenspiride HCl],0.849,inactive: 1.11,1.46
Nc1nc(=O)c2nc(CNc3ccc(C(=O)N[C@@H](CCC(=O)O)C(=O)O)cc3)cnc2[nH]1 [Folic acid],0.823,inactive: 0.548,1.09
C[C@H]1[C@H](C)CC[C@]2(C(=O)O[C@@H]3O[C@H](CO[C@@H]4O[C@H](CO)[C@@H](O[C@@H]5O[C@H](C)[C@H](O)[C@@H](O)[C@H]5O)[C@H](O)[C@H]4O)[C@@H](O)[C@H](O)[C@H]3O)CC[C@]3(C)C(=CC[C@@H]4[C@@]5(C)C[C@@H](O)[C@H](O)[C@@](C)(CO)[C@@H]5CC[C@]43C)[C@H]12 [Asiaticoside],0.944,inactive: 0.938,1.47
C=CC(=O)Nc1cccc(Nc2nc(Nc3ccc(N4CCN(C(C)=O)CC4)cc3OC)ncc2C(F)(F)F)c1,1.02,inactive: 0.542,0.356
O=S(=O)(O)CCSSCCS(=O)(=O)O [Dimesna],0.991,inactive: 1.26,1.48
N=C(N)NCCC[C@@H](NC(=O)[C@@H]1CCCN1C(=O)[C@@H]1CSSCCC(=O)N[C@@H](Cc2ccc(O)cc2)C(=O)N[C@@H](Cc2ccccc2)C(=O)N[C@@H](CCC(N)=O)C(=O)N[C@@H](CC(N)=O)C(=O)N1)C(=O)NCC(N)=O [Desmopressin],1.05,inactive: 1.4,1.13
O=C(O)CC(O)C(=O)O (configuration not stated) [Malic acid],1.01,inactive: 0.923,1.3
COc1c(O)cc2c(c1O)[C@@H]1O[C@H](CO)[C@@H](O)[C@H](O)[C@H]1OC2=O [Bergenin],1.02,inactive: 0.783,1.18
CCN1CCN(C(=O)N[C@@H](C(=O)N[C@@H]2C(=O)N3[C@@H]2SC(C)(C)[C@@H]3C(=O)O)c2ccccc2)C(=O)C1=O [Piperacillin Sodium],0.825,inactive: 1.13,1.5
O=C(O)c1cc(O)c2c(c1)[C@@H]([C@H]1c3cc(C(=O)O)cc(O)c3C(=O)c3c(O[C@@H]4O[C@H](CO)[C@@H](O)[C@H](O)[C@H]4O)cccc31)c1cccc(O[C@@H]3O[C@H](CO)[C@@H](O)[C@H](O)[C@H]3O)c1C2=O [Sennoside B],0.869,inactive: 1.08,0.218
C[C@H]1[C@H](C)CC[C@]2(C(=O)O[C@@H]3O[C@H](CO[C@@H]4O[C@H](CO)[C@@H](O[C@@H]5O[C@@H](C)[C@H](O)[C@@H](O)[C@H]5O)[C@H](O)[C@H]4O)[C@@H](O)[C@H](O)[C@H]3O)CC[C@]3(C)C(=CC[C@@H]4[C@@]5(C)C[C@@H](O)[C@H](O)[C@@](C)(CO)[C@@H]5[C@H](O)C[C@]43C)[C@H]12 [Madecassoside],1.09,inactive: 0.898,1.33
Cc1ncc(COP(=O)(O)O)c(C=O)c1O [Pyridoxal 5 phosphate],1.04,inactive: 0.868,1.41
Oc1cc(O)c(Cl)cn1 [Gimeracil],1.26,inactive: 0.93,1.05
NC(=O)c1ncn([C@@H]2O[C@H](CO)[C@@H](O)[C@H]2O)n1 [Ribavirin],0.99,inactive: 0.86,1.92
COc1cc2c(cc1OC)C(=O)C(CC1CCN(Cc3ccccc3)CC1)C2 (configuration not stated) [Donepezil HCl],0.882,inactive: 1.33,1.07
Cc1cccc(C)c1OCC(C)N (configuration not stated) [Mexiletine HCl],0.91,inactive: 1.08,1.08
O=C1Nc2ccc(Cl)cc2[C@@](C#CC2CC2)(C(F)(F)F)O1 [Efavirenz],0.565,active: 0.485,0.00734
NS(=O)(=O)c1cc(Cl)c(Cl)c(S(N)(=O)=O)c1 [Dichlorphenamide],1.45,inactive: 1.05,1.1
O=C(O)c1cc(O)c(O)c(O)c1 [Gallic acid],1.03,inactive: 0.994,1.7
CC(CCc1ccccc1)NCC(O)c1ccc(O)c(C(N)=O)c1 (configuration not stated) [Labetalol HCl],1.05,inactive: 0.69,1.69
COc1ccc(/C=C/C(=O)Nc2ccccc2C(=O)O)cc1OC [Tranilast],1.1,inactive: 1.14,1.14
CC/C(=C(/CC)c1ccc(O)cc1)c1ccc(O)cc1 [Diethylstilbestrol],0.84,active: 0.178,0.938
CCn1cc(C(=O)O)c(=O)c2ccc(C)nc21 [Nalidixic acid],0.953,inactive: 0.874,0.986
"O=C(O)CCCC[C@@H]1CCSS1 [(R)-(+)-1,2-Dithiolane-3-pentanoic acid]",0.966,inactive: 1.03,1.67
COc1ccccc1OCC(O)CN1CCN(CC(=O)Nc2c(C)cccc2C)CC1 (configuration not stated) [Ranolazine],1.05,inactive: 1.09,0.862
CC(C)c1nc(N(C)S(C)(=O)=O)nc(-c2ccc(F)cc2)c1/C=C/[C@@H](O)C[C@@H](O)CC(=O)O [Rosuvastatin],1.42,inactive: 0.804,2.92
CO[C@@H]1[C@H](N(C)C(=O)c2ccccc2)C[C@H]2O[C@]1(C)n1c3ccccc3c3c4c(c5c6ccccc6n2c5c31)C(=O)NC4 [Midostaurin (PKC412)],1,inactive: 1.29,0.481

SMILES,relative cell viability [1],relative GAG core protein HA-SDC1 amount per cell number [2],relative mutant VPS33A R498W amount [3]
O=C(O)C1=CO[C@@H](O[C@@H]2O[C@H](CO)[C@@H](O)[C@H](O)[C@H]2O)[C@@H]2C(CO)=CC[C@H]12 [Geniposidic acid],1.04,inactive: 0.868,1.53
COC(=O)C1=C(C)NC(C)=C(C(=O)OC)C1c1ccccc1[N+](=O)[O-] [Nifedipine],0.745,active: 0.178,2.47
NCCCC(N)(C(=O)O)C(F)F (racemic) [DL-α-Difluoromethylornithine (hydrochloride hydrate)],1.1,inactive: 0.798,1.17
Cn1c(=O)c2[nH]cnc2n(C)c1=O [Aminophylline],1.16,inactive: 1.56,0.678
c1cc(CN2CCCNCCNCCCNCC2)ccc1CN1CCCNCCNCCCNCC1 [Plerixafor 8HCl (AMD3100 8HCl)],1.03,inactive: 1.4,0.942
O=c1cc[nH]c(=O)[nH]1 [Uracil],1.06,inactive: 0.868,2
NC(CO)(CO)CO [Trometamol],1.14,inactive: 0.856,1.02
CN1CCN(c2c(F)cc3c(=O)c(C(=O)O)cn4c3c2OCN4C)CC1 [Marbofloxacin],0.967,inactive: 1.23,1.29
CC[C@@H](CO)NCCN[C@@H](CC)CO [Ethambutol HCl],1.1,inactive: 1.27,0.992
CC(C)NCC(O)COc1cccc2ccccc12 (configuration not stated) [Propranolol HCl],1.11,active: 0.443,0.481
O=C1C[C@@H](c2ccc(O)c(O)c2)Oc2cc(O)cc(O)c21 [Eriodictyol],0.922,inactive: 0.872,0.371
O=P(O)(O)C(Cl)(Cl)P(=O)(O)O [Clodronate Disodium],1.07,inactive: 1.53,0.937
Nc1ccn([C@@H]2CS[C@H](CO)O2)c(=O)n1 [Lamivudine],1.11,inactive: 1.26,0.937
CN(Cc1cc(Br)cc(Br)c1N)C1CCCCC1 [Bromhexine HCl],1.02,inactive: 0.558,0.695
CCN[C@@H]1C[C@H](N)[C@@H](O[C@H]2OC(CN)=CC[C@H]2N)[C@H](O)[C@H]1O[C@H]1OC[C@](C)(O)[C@H](NC)[C@H]1O [Netilmicin Sulfate],0.89,inactive: 1.03,0.696
Cc1cn([C@H]2C[C@H](N=[N+]=[N-])[C@@H](CO)O2)c(=O)[nH]c1=O [Zidovudine],1.07,inactive: 0.893,1.71
O=c1cc(-c2ccc(O)cc2)oc2cc(O)cc(O)c12 [Apigenin],1.11,active: 0.49,2.68
C#Cc1cccc(Nc2ncnc3cc(OCCOC)c(OCCOC)cc23)c1 [Erlotinib Hydrochloride],1.32,inactive: 1.24,0.484
CC(=O)/N=c1/sc(S(N)(=O)=O)nn1C [Methazolamide],0.956,inactive: 1.23,1.13
CCCCOc1ccc(CC(=O)NO)cc1 [Bufexamac],1.13,inactive: 0.887,0.741
CC(=O)OCC(=O)[C@@]12OC(C)(C)O[C@@H]1C[C@H]1[C@@H]3C[C@H](F)C4=CC(=O)C=C[C@]4(C)[C@@]3(F)[C@@H](O)C[C@@]12C [Fluocinonide],1.16,inactive: 0.923,1.15
Nc1ccc(S(=O)(=O)Nc2ccccn2)cc1 [Sulfapyridine],1.07,inactive: 0.734,1.13
O=C(O)/C=C/c1ccc(O)c(O)c1 [Caffeic acid],1,inactive: 1.09,1.18
CNC(=O)c1cc(Oc2ccc(NC(=O)Nc3ccc(Cl)c(C(F)(F)F)c3)c(F)c2)ccn1 [Regorafenib monohydrate],0.65,inactive: 0.576,0.128
Nc1ccc(/N=N/c2ccccc2)c(N)n1 [Phenazopyridine HCl],0.836,inactive: 0.715,0.437
O=C(O)C[C@H](O)C[C@H](O)/C=C/c1c(C2CC2)nc2ccccc2c1-c1ccc(F)cc1 [Pitavastatin],1.32,inactive: 0.738,1.71
N=C(N)NC(=O)c1nc(Cl)c(N)nc1N [Amiloride HCl],1.2,inactive: 0.622,0.876
